This is one part of the list. Sequences were assembled here from the parent chain. Inactive controls read about 0.05.
B1: TEV protease; numbered along this chain (parent)
chain: MGESLFKGPRDYNPISSSICHLTNESDGHTTSLYGIGFGPFIITNKHLFRRNNGTLVVQSLHGVFKVKDTTTLQQHLVDGRDMIIIRMPKDFPPFPQKLKFREPQREERICLVTTNFQTKSMSSMVSDTSCTFPSGDGIFWKHWIQTKDGQCGSPLVSTRDGFIVGIHSASNFTNTNNYFTSVPKNFMELLTNQEAQQWVSGWRLNADSVLWGGHKVFMVKPEEPFQPVKEATQL

Variants of: B1
Assay: raw area under fraction-flipped curve 0-4 h after induction (AUC4h, not background-subtracted), DNA-recorder readout of cleavage of the substrate (dimensionless); higher = more cleavage of the substrate by the protease variant
Conditions: temperature: 34 °C; time window: 0-4 h after rhamnose induction
Method: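 In vivo DNA recorder in E. coli TOP10(DE3) ΔrhaA at 34 °C. Each TEVp single-site mutant (parent TEVp 0) is paired with a single-site variant of the 7-mer TEVs (canonical ENLYFQ|S). The substrate sits between flexible linkers in a Bxb1-sfGFP-TEVs-SsrA fusion, so cleavage stabilises Bxb1 and speeds flipping of a recombination array, read by NGS. The value is the raw area under the fraction-flipped curve over 0-4 h after rhamnose induction (AUC4h), with ≥20 reads per time point. It is not background-subtracted; inactive controls average about 0.047.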
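Further: Bxb1 expression induced with 0.2% (w/v) L-rhamnose at OD600 near 0.5, cultures sampled hourly, flipped fraction per protease–substrate barcode pair counted by paired-end Illumina sequencing.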

Row | Variant | area with substrate ENAYFQS | area with substrate ENCYFQS | area with substrate ENDYFQS | area with substrate ENEYFQS | area with substrate ENFYFQS | area with substrate ENGYFQS | area with substrate ENIYFQS | area with substrate ENKYFQS | area with substrate ENMYFQS | area with substrate ENNYFQS | area with substrate ENQYFQS | area with substrate ENRYFQS | area with substrate ENSYFQS | area with substrate ENTYFQS | area with substrate ENVYFQS | area with substrate ENYYFQS | area with substrate ENHYFQS | area with substrate ENPYFQS | area with substrate ENWYFQS
1 | MGESLFKGPRDYNPISSSICHLTNESDGHTTSLYGIGFGPFIITNKHLFRRNNGTLVVQSLHGVFKVKDTTTLQQHLVDGRDMIIIRMPKDFPPFPQKLKFREPQREERICLVTTNFQTKSMSSMVSDTSCTFPSGDGIFWKHWIQTKDRQCGSPLVSTRDGFIVGIHSASNFTNTNNYFTSVPKNFMELLTNQEAQQWVSGWRLNADSVLWGGHKVFMVKPEEPFQPVKEATQL [G150R] | 0.0655 | 0.0571 | 0.0616 | 0.0626 | 0.0728 | 0.0658 | 0.0611 | 0.0638 | 0.0525 | 0.0598 | 0.0623 | 0.0522 | 0.0624 | 0.0619 | 0.0518 | 0.0583 |  |  | 
2 | MGESLFKGPRDYNPISSSICHLTNESDGHTTSLYGIGFGPFIITNKHLFRRNNGTLVVQSLHGVFKVKDTTTLQQHLVDGRDMIIIRMPKDFPPFPQKLKFREPQREERICLVTTNFQTKSMSSMVSDTSCTFPSGDGIFWKHWIQTKDKQCGSPLVSTRDGFIVGIHSASNFTNTNNYFTSVPKNFMELLTNQEAQQWVSGWRLNADSVLWGGHKVFMVKPEEPFQPVKEATQL [G150K] | 0.0723 |  | 0.0706 | 0.066 | 0.0533 | 0.0652 |  |  |  |  | 0.0692 | 0.0711 | 0.0648 | 0.0534 | 0.0289 | 0.0583 | 0.0589 | 0.0517 | 
3 | MGESLFKGPRDYNPISSSICHLTNESDGHTTSLYGIGFGPFIITNKHLFRRNNGTLVVQSLHGVFKVKDTTTLQQHLVDGRDMIIIRMPKDFPPFPQKLKFREPQREERICLVTTNFQTKSMSSMVSDTSCTFPSGDGIFWKHWIRTKDGQCGSPLVSTRDGFIVGIHSASNFTNTNNYFTSVPKNFMELLTNQEAQQWVSGWRLNADSVLWGGHKVFMVKPEEPFQPVKEATQL [Q146R] | 0.0503 | 0.0674 | 0.0538 |  | 0.057 |  |  | 0.0667 | 0.0661 | 0.0714 | 0.0558 | 0.0684 | 0.0572 | 0.0779 |  | 0.0658 | 0.0772 | 0.0396 | 
4 | MGESLFKGPRDYNPISSSICHLTNESDGHTTSLYGIGFGPFIITNKHLFRRNNGTLVVQSLHGVFKVKDTTTLQQHLVDGRDMIIIRMPKDFPPFPQKLKFREPQREERICLVTTNFQTKSMSSMVSDTSCTFPSGDGIFWKHWFQTKDGQCGSPLVSTRDGFIVGIHSASNFTNTNNYFTSVPKNFMELLTNQEAQQWVSGWRLNADSVLWGGHKVFMVKPEEPFQPVKEATQL [I145F] | 0.0352 | 0.0627 |  | 0.0563 | 0.0742 |  | 0.0912 |  |  | 0.0631 | 0.0527 |  | 0.0619 |  |  | 0.0371 | 0.0574 | 0.0539 | 
5 | MGESLFKGPRDYNPISSSICHLTNESDGHTTSLYGIGFGPFIITNKHLFRRNNGTLVVQSLHGVFKVKDTTTLQQHLVDGRDMIIIRMPKDFPPFPQKLKFREPQREERICLVTTNFQTKSMSSMVSDTSCTFPSGDGIFWKHWIQTGDGQCGSPLVSTRDGFIVGIHSASNFTNTNNYFTSVPKNFMELLTNQEAQQWVSGWRLNADSVLWGGHKVFMVKPEEPFQPVKEATQL [K148G] | 0.0686 |  | 0.0635 | 0.066 | 0.0524 | 0.0671 |  | 0.0654 |  | 0.0702 | 0.0673 | 0.0558 | 0.0641 | 0.065 | 0.071 | 0.0448 | 0.0667 | 0.065 | 0.0608
6 | MGESLFKGPRDYNPISSSICHLTNESDGHTTSLYGIGFGPFIITNKHLFRRNNGTLVVQSLHGVFKVKDTTTLQQHLVDGRDMIIIRMPKDFPPFPQKLKFREPQREERICLVTTNFQTKSMSSMVSDTSCTFPSGDGIFWKHWIQEKDGQCGSPLVSTRDGFIVGIHSASNFTNTNNYFTSVPKNFMELLTNQEAQQWVSGWRLNADSVLWGGHKVFMVKPEEPFQPVKEATQL [T147E] | 0.0593 | 0.0569 | 0.065 | 0.0726 | 0.0534 | 0.0628 | 0.0657 | 0.0764 | 0.0791 | 0.0573 | 0.0584 | 0.0626 | 0.0592 | 0.0467 | 0.0573 | 0.0454 | 0.0499 |  | 0.0044
7 | MGESLFKGPRDYNPISSSICHLTNESDGHTTSLYGIGFGPFIITNKHLFRRNNGTLVVQSLHGVFKVKDTTTLQQHLVDGRDMIIIRMPKDFPPFPQKLKFREPQREERICLVTTNFQTKSMSSMVSDTSCTFPSGDGIFWKHWIQNKDGQCGSPLVSTRDGFIVGIHSASNFTNTNNYFTSVPKNFMELLTNQEAQQWVSGWRLNADSVLWGGHKVFMVKPEEPFQPVKEATQL [T147N] | 0.056 | 0.0537 | 0.0555 | 0.0802 | 0.0694 |  |  |  | 0.0493 | 0.079 | 0.061 | 0.0593 | 0.0615 | 0.0604 | 0.0624 |  | 0.0568 | 0.0657 | 0.0571
8 | MGESLFKGPRDYNPISSSICHLTNESDGHTTSLYGIGFGPFIITNKHLFRRNNGTLVVQSLHGVFKVKDTTTLQQHLVDGRDMIIIRMPKDFPPFPQKLKFREPQREERICLVTTNFQTKSMSSMVSDTSCTFPSGDGIFWKRWIQTKDGQCGSPLVSTRDGFIVGIHSASNFTNTNNYFTSVPKNFMELLTNQEAQQWVSGWRLNADSVLWGGHKVFMVKPEEPFQPVKEATQL [H143R] | 0.0437 | 0.0772 | 0.0653 | 0.0641 | 0.0616 |  |  | 0.0617 | 0.0567 | 0.0553 | 0.0674 | 0.0528 | 0.0577 | 0.0621 | 0.0607 | 0.0594 | 0.0677 |  | 0.0079
9 | MGESLFKGPRDYNPISSSICHLTNESDGHTTSLYGIGFGPFIITNKHLFRRNNGTLVVQSLHGVFKVKDTTTLQQHLVDGRDMIIIRMPKDFPPFPQKLKFREPQREERICLVTTNFQTKSMSSMVSDTSCTFPSGDGIFWKPWIQTKDGQCGSPLVSTRDGFIVGIHSASNFTNTNNYFTSVPKNFMELLTNQEAQQWVSGWRLNADSVLWGGHKVFMVKPEEPFQPVKEATQL [H143P] | 0.0485 | 0.059 | 0.0718 | 0.0524 | 0.0753 | 0.0571 |  |  | 0.0617 |  | 0.0567 | 0.0522 | 0.0525 | 0.0629 | 0.047 | 0.0607 | 0.0414 |  | 0.0508

Reference: the supplement of paper PMC12217912
